From the antibiotic and cytotoxicity screens of Wong et al. (2023)
The list shows a part of the results.

Key:
HSkMC = human skeletal muscle cells; experiment: cytotoxicity call (relative viability < 0.9); conditions: 10 µM
HepG2 = experiment: cytotoxicity call (relative viability < 0.9); conditions: 10 µM
S. aureus RN4220 = experiment: growth inhibition call (relative growth <= 0.2); conditions: 50 µM

C[C@H]1CN([C@@H](C)CO)S(=O)(=O)c2ccc(C#Cc3ccccc3)cc2O[C@@H]1CN(C)C(=O)c1ccccn1
inactive: cytotoxicity call (HSkMC) | cytotoxicity call (HepG2) | growth inhibition call (S. aureus RN4220)

C[C@@H]1CCCCO[C@@H](CN(C)Cc2ccc(Cl)c(Cl)c2)[C@@H](C)CN([C@H](C)CO)C(=O)c2cc(NC(=O)CCCCCC(=O)Nc3ccccc3N)ccc2O1
inactive: cytotoxicity call (HSkMC) | cytotoxicity call (HepG2) | growth inhibition call (S. aureus RN4220)

Cc1noc(C)c1NC(=O)N(C)C[C@H]1Oc2ccc(NC(=O)C3CC3)cc2CC(=O)N([C@H](C)CO)C[C@@H]1C
inactive: cytotoxicity call (HSkMC) | cytotoxicity call (HepG2) | growth inhibition call (S. aureus RN4220)

C[C@H]1CN([C@@H](C)CO)C(=O)c2cccc(NC(=O)Nc3ccc(F)cc3)c2O[C@@H]1CN(C)Cc1ccc(-c2ccccc2)cc1
inactive: cytotoxicity call (HSkMC) | cytotoxicity call (HepG2) | growth inhibition call (S. aureus RN4220)

C[C@@H]1CN([C@@H](C)CO)C(=O)c2cccc(NC(=O)C3CC3)c2O[C@H]1CN(C)Cc1ccc(C(=O)O)cc1
inactive: cytotoxicity call (HSkMC) | cytotoxicity call (HepG2) | growth inhibition call (S. aureus RN4220)

Nc1cnc(Cl)nc1N
inactive: cytotoxicity call (HSkMC) | cytotoxicity call (HepG2) | growth inhibition call (S. aureus RN4220)

NCC[C@@H]1CC[C@H](NC(=O)Nc2ccc(F)cc2)[C@H](CO)O1
inactive: cytotoxicity call (HSkMC) | cytotoxicity call (HepG2) | growth inhibition call (S. aureus RN4220)

CCC(=O)N1CCC[C@H](C(=O)O)C1
inactive: cytotoxicity call (HSkMC) | cytotoxicity call (HepG2) | growth inhibition call (S. aureus RN4220)

C[C@@H]1CN([C@H](C)CO)C(=O)c2cc(C#CC3(O)CCCC3)cnc2O[C@@H]1CN(C)C(=O)CN(C)C
inactive: cytotoxicity call (HSkMC) | cytotoxicity call (HepG2) | growth inhibition call (S. aureus RN4220)

Cc1ccc(-c2cnc3c(c2)C(=O)N([C@@H](C)CO)C[C@@H](C)[C@H](CN(C)C(=O)Cc2cccnc2)O3)cc1
inactive: cytotoxicity call (HSkMC) | cytotoxicity call (HepG2) | growth inhibition call (S. aureus RN4220)
